Laboratory results published in PubChem BioAssay (NCI).
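Dose response: 5 concentrations. Exposure: 48 h. Format: 96-well plates. Endpoint: linear interpolation; highest concentration if not reached. The concentration for 50% growth inhibition is given as GI50. At the TGI there is no net growth.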

Tested on: NCI-H322M lung
Test: growth of human tumour cells (NCI), 48 h

**Q.** With `O=c1oc2ccccc2c(O)c1/C=N\c1nc(-c2ccc(O)c(O)c2)cs1` as the molecule, how does the TGI read?
**A.** 26.7 µM

**Q.** For `O=C(Nc1ccc(Cl)cc1)/C(=C(/[O-])c1ccc(Br)cc1)[n+]1cccc(-c2ccc(Cl)cc2)n1`, which TGI is on record?
**A.** 17.7 µM

**Q.** With `O=c1[nH]c2ccccc2c(O)c1/C=N/C(=S)NCCc1ccccc1` as the molecule, how does the TGI read?
**A.** > 100 µM

**Q.** Which TGI does the source give for `Cc1ccc(C2=C(c3ccccc3)C(=O)C(c3ccccc3)=C2c2ccc(C)cc2)cc1` here?
**A.** > 100 µM

**Q.** For `Nc1nc(CCl)nc(N2CCOCC2)n1`, which TGI is on record?
**A.** > 100 µM

**Q.** Which results are given for `Oc1cc(Cn2cnc3c(Cl)nc(Cl)nc32)ccc1C12CC3CC(CC(C3)C1)C2`?
**A.** GI50: 18.6 µM; TGI: 38.4 µM

**Q.** For `NCC(O)CSP(=O)(O)O` (stereo not given), which TGI is on record?
**A.** > 100 µM

**Q.** `O=C1CCC[C@]2(CCCC(=O)N2)C1` was tested. Which TGI did it give?
**A.** > 100 µM

**Q.** With `COc1ccc(N2C(=O)C3c4[nH]c5c(C)cccc5c4C4CCC(c5ccccc5)CC4C3C2=O)cc1` (stereo not given) as the molecule, how does the TGI read?
**A.** 89.7 µM
